Measured values reported in PubChem BioAssay AID602393 (Broad Institute, 2012).
Out of some 350,000 compounds screened, about 7,000 (2%) were called active. Inconclusive results, whose numbers are uncertain, are shown with a selection of clear calls. Cut-off read from the data, not from the text of the source: active = activation above about 40%; inconclusive = no clear call, values can overlap the other calls; inactive = below that.

Assay: raisers of Bmi1 knock-in reporter signal – mouse ES cells, Bmi1 luciferase knock-in, single point, esBAF inhibitor project, primary screen (AID 602393);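 note: 0% = median of the plate's neutral control wells and 100% = double that signal; a rise in the Bmi1 reporter signal indicates esBAF inhibition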
Conditions: 24 h, at 12.5 µM, hits give high values, 100% = twice the neutral-well signal

| Compound | reporter increase |
| --- | --- |
| O=C(Nc1ccc(NC(=O)c2ccccc2Br)cc1)c1ccccc1 | active: 42.2% |
| Cc1ccc(-c2n[nH]c(Cc3ccccc3)n2)cc1 | active: 53.8% |
| Cc1ccc2c(c1)CCCN2C(=O)Nc1ccc2c(c1)OCO2 | inconclusive: 43.2% |
| Cc1ccc(CSc2nnc(-c3cccc4ccccc34)o2)cc1 | inactive: -3.03% |
| Cc1cccc2nc3ccccc3cc12 | inactive: 10.6% |
| C[C@@H]1CCCCO[C@H](CN(C)C(=O)c2ccccc2)[C@@H](C)CN([C@@H](C)CO)C(=O)c2cc(NC(=O)NC3CCCCC3)ccc2O1 | inactive: -3.67% |
| Cc1ccc(C(=O)Nc2ccc3nc(C)sc3c2)o1 | inconclusive: 44.4% |
| COc1ccc(-c2csc(Nc3cccc(C)n3)n2)cc1C | active: 44.8% |
| O=S(=O)(Nc1ccc2cn[nH]c2c1)c1ccc(Cl)cc1 | inactive: -3.62% |
| O=C(Nn1cnc2ccccc2c1=O)c1ccc(F)cc1Cl | inconclusive: 51.9% |
| Cc1ccc(Oc2ncc(CN3CCOCC3)s2)cc1 | inconclusive: 58.8% |
| Cc1ccccc1C(=O)NC(=S)Nc1ncccn1 | active: 46.7% |
| CC(=O)c1cccc(OCc2cc(C(=O)N3C[C@@H](C)O[C@@H](C)C3)no2)c1 | active: 64.9% |
| CCCCOC(=O)Nc1ccc(N2CCOCC2)cc1 | inconclusive: 45.2% |
| COc1ccccc1NC(=O)Nc1ccc2c(c1)OCCO2 | inconclusive: 40.3% |
| Cc1cc(O)c(C(C)C)cc1N=Nc1ccccc1C(=O)O | inactive: -4.44% |
| CN(C)c1ccc(CSc2ccccc2)cc1 | active: 75.8% |
| CCOc1cc(/C=N/NC(=O)c2ccc3c(c2)OCCO3)cc(Br)c1O | inconclusive: 41.7% |
| Cc1oc(C(C)(C)C)cc1C(=O)Nc1cccc(C(=O)O)c1 | inactive: 28.5% |
| COc1ccc(-c2csc(NC(=O)C3=COCCO3)n2)cc1OC | active: 65.5% |

| Compound | reporter increase |
| --- | --- |
| COc1ccc(C(CNC(=O)c2ccc(-c3nc4ccccc4s3)o2)N2CCCC2)cc1 (stereo not given) | inconclusive: 41.6% |
| COc1c2c(nc3occc13)C(CC=C(C)C)(OC)C(OC(C)=O)CC2 (stereo not given) | inactive: 3.19% |
| COc1ccc(-c2cc(CNc3nc4cc(-c5ccccc5C)sc4c(=O)n3C)on2)cc1 | inconclusive: 40.3% |
| COc1ccc(OC)c(N/C=C/C(=O)c2ccccc2)c1 | inactive: -79.7% |
| Cc1ccc(N=C2C(=S)N(c3ccc(C)cc3)C(=N)N2/N=C/c2ccc(Cl)cc2)cc1 | inconclusive: 41% |
| COc1ccc(-c2cnc3c(-c4ccc(F)cc4)cnn3c2N)cc1 | inconclusive: 59.9% |
| C[C@H]1CN([C@@H](C)CO)C(=O)c2cc(NS(=O)(=O)c3ccc(F)cc3)ccc2O[C@@H]1CN(C)C(=O)Nc1ccc2c(c1)OCO2 | inconclusive: 50.1% |
| COc1ccc(NC(=O)N(C)C[C@H]2OCCCC[C@H](C)Oc3ccc(NS(=O)(=O)c4c(C)noc4C)cc3C(=O)N([C@@H](C)CO)C[C@H]2C)cc1 | inactive: -1.25% |
| COc1cccc2cc(C(=O)NCc3ccccc3Cl)c(=O)oc12 | inconclusive: 43.1% |
| COc1ccc(NC(=S)Nc2ccc(N)c([N+](=O)[O-])c2)cc1 | active: 47.4% |
| Oc1ccc(-c2nccc(-c3ccc(Br)cc3)n2)cc1 | inconclusive: 44.1% |
| O=C(Nc1ccccc1)c1ccc(-c2ccccc2Cl)o1 | active: 53.3% |
| CCOC(=O)C1CCCN(C(=O)CCc2nnc(-c3ccc(C(C)=O)s3)o2)C1 (stereo not given) | active: 70.9% |
| C/C(=N\NC(=O)c1sccc1C)c1cccnc1 | inconclusive: 43% |
| O=C(N[C@H]1CC[C@H](CCNS(=O)(=O)c2ccccc2)O[C@@H]1CO)c1cnccn1 | inactive: 1.32% |
| O=C(CSc1ccc(Cl)cc1)N1CCN(c2c(Cl)cccc2[N+](=O)[O-])CC1 | inconclusive: 46.1% |
| CC(C)Cc1cc(C(=O)Nc2ccc(F)cc2F)no1 | active: 78.6% |
| Nc1ccc2nc(Cc3ccccc3)[nH]c2c1 | inconclusive: 20.4% |
| COc1ccc2nc(NC(=O)c3ccccc3[N+](=O)[O-])sc2c1 | active: 49.7% |
| COc1ccc(-c2cc(-c3ccc(C)cc3)n[nH]2)c(O)c1 | inconclusive: 59.2% |

| Compound | reporter increase |
| --- | --- |
| O=C(CSc1ccc(-c2cccs2)nn1)N1CCCCC1 | inactive: 32.7% |
| Cn1c(NCc2ccc3occc3c2)nc2cc(-c3ccc(F)cc3)sc2c1=O | inconclusive: 41.2% |
| Cc1ccc(Sc2ncccc2COC(=O)NC(C)C)cc1 | inconclusive: 40.5% |
| COc1cccc(OCc2nc3ccccc3[nH]2)c1 | inconclusive: 43.2% |
| C(#CC1CCCC1)c1ccc2c(c1)COc1c3ccccc3nn1-2 | active: 60% |
| CCOC(=O)Nc1ccc2nc(N3CCCCCC3)sc2c1 | inconclusive: 56.8% |
| CCOC(=O)C1=C(c2ccccc2)O/C(=C(\C(=O)OC)C(F)(F)F)S1 | inactive: -18% |
| COc1ccc2nc(N3CCCCC3)c(C#N)cc2c1 | inconclusive: 41.3% |
| CSc1ccc(/C=N/NC(=O)c2ccccc2Cl)cc1 | active: 78.7% |
| O=C(Cc1ccccc1)Nc1ccc(N2CCCCC2)cc1 | inactive: 20.2% |
| O=C(Cn1ncc(N2CCCC2)c(Cl)c1=O)c1ccc(Cl)cc1 | inconclusive: 42.5% |
| COC(=O)c1ccc(N2CCCCC2)c(N)c1 | active: 58.5% |
| CC(NC(=O)c1cc(COc2ccc(-n3cncn3)cc2)on1)c1ccc(F)cc1 (stereo not given) | active: 58.9% |
| Cc1cc(NC(=O)COc2ccc3ccccc3c2Br)no1 | inconclusive: 41.4% |
| CN(C)c1ccc(-c2ccc3oc(-c4ccsc4)cc(=O)c3c2)cn1 | active: 68.8% |
| Cc1nc2sc(-c3ccccc3)cc2c(=O)n1/N=C/N(C)C | inconclusive: 40.8% |
| CC(=Nc1ccccc1)c1sc2ccccc2c1O | inconclusive: 41.6% |
| COc1ccc(OCc2cc(C(=O)N(C)Cc3nnc(C)o3)no2)c(Cl)c1 | inconclusive: 43.7% |
| Cc1cc(C)cc(OCC(=O)O/N=C(\N)c2ccccn2)c1 | inconclusive: 45% |
| O=C(O)/C=C/c1cn(-c2ccccc2)nc1-c1cc2ccccc2oc1=O | inconclusive: 41.2% |
